# According to the supplement of paper PMC4967469:
# IC50 is the fitted dose that halves viability relative to control wells, and lower means more sensitive; where the fit passes the top or lowest dose, that dose stands as a limit. AUC sums up the same curve from the lowest dose to the 256-fold higher top dose: 1 means no effect, lower means more sensitive. A top dose marked as inferred was derived from the fitted curves, not read from the paper. For part of these data: An entry number marks a drug with two screens in the source, which often give different values.
# What was measured:
# Experiment in all cases: Viability of human cancer cell lines after 72 h of drug (GDSC screen)
# Wee1 inhibitor 681640 = compound: O=C1NC(=O)c2c1c(-c1ccccc1Cl)cc1[nH]c3ccc(O)cc3c21 [Wee1 inhibitor 681640]; conditions: top dose 2 µM; top dose inferred
# Description: (§1)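 Human cancer cell lines in 384-well plates, medium with 10% serum, drug for 72 h over a 256-fold dose range (nine 2-fold or five 4-fold steps up to the top dose). Adherent lines were fixed and stained with the nucleic acid dye Syto60, suspension lines read with resazurin; signal relative to control wells, capped at 0 and 100%. One two-parameter sigmoid per drug and line, fitted in a mixed model over all curves with the slope shared within a line.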
# Shikonin = compound: CC(C)=CC[C@@H](O)C1=CC(=O)c2c(O)ccc(O)c2C1=O [Shikonin]; conditions: top dose 16 µM; top dose inferred
# Description: as §1
# SB-525334 = compound: Cc1cccc(-c2[nH]c(C(C)(C)C)nc2-c2ccc3nccnc3c2)n1 [SB-525334]; conditions: top dose 20 µM; top dose inferred
# Description: as §1
# Olaparib = compound: O=C(c1cc(Cc2n[nH]c(=O)c3ccccc23)ccc1F)N1CCN(C(=O)C2CC2)CC1 [Olaparib]
# Description: as §1
# CGP-082996 (CINK4) = compound: CCNc1cc(NC2CCC(O)CC2)nc(Nc2ccc3c(ccn3Cc3ccccc3)c2)n1 [CGP-082996 (CINK4)]; conditions: top dose 5.12 µM; top dose inferred
# Description: as §1
# XMD8-85 = compound: COc1cc(N2CCN(C)CC2)ccc1Nc1ncc2c(n1)N(C)c1ccccc1C(=O)N2C [XMD8-85]; conditions: top dose 8 µM; top dose inferred
# Description: as §1
# A-770041 = compound: COc1cc(-c2nn([C@H]3CC[C@H](N4CCN(C(C)=O)CC4)CC3)c3ncnc(N)c23)ccc1NC(=O)c1cc2ccccc2n1C [A-770041]; conditions: top dose 5.12 µM; top dose inferred
# Description: as §1
# BMS-536924 = compound: Cc1cc(N2CCOCC2)cc2[nH]c(-c3c(NC[C@@H](O)c4cccc(Cl)c4)cc[nH]c3=O)nc12 [BMS-536924]
# Description: as §1
# BIRB 0796 = compound: Cc1ccc(-n2nc(C(C)(C)C)cc2NC(=O)Nc2ccc(OCCN3CCOCC3)c3ccccc23)cc1 [BIRB 0796]; conditions: top dose 10 µM; top dose inferred
# Description: as §1
# VX-702 = compound: NC(=O)c1ccc(N(C(N)=O)c2c(F)cccc2F)nc1-c1ccc(F)cc1F [VX-702]; conditions: top dose 2 µM; top dose inferred
# Description: as §1
# [1] = top dose 5 µM, screen: GDSC drug entry 1017, top dose inferred
# [2] = top dose 10 µM, screen: GDSC drug entry 1495
# [3] = top dose 4 µM, screen: GDSC drug entry 1091, top dose inferred
# [4] = top dose 5.12 µM, screen: GDSC drug entry 62
Cell Line,AUC (Wee1 inhibitor 681640),IC50 (Wee1 inhibitor 681640) [µM],AUC (Shikonin),IC50 (Shikonin) [µM],AUC (SB-525334),IC50 (SB-525334) [µM],AUC (Olaparib; [1]),IC50 (Olaparib; [1]) [µM],AUC (Olaparib; [2]),IC50 (Olaparib; [2]) [µM],AUC (CGP-082996 (CINK4)),IC50 (CGP-082996 (CINK4)) [µM],AUC (XMD8-85),IC50 (XMD8-85) [µM],AUC (A-770041),IC50 (A-770041) [µM],AUC (BMS-536924; [3]),IC50 (BMS-536924; [3]) [µM],AUC (BMS-536924; [4]),IC50 (BMS-536924; [4]) [µM],AUC (BIRB 0796),IC50 (BIRB 0796) [µM],AUC (VX-702),IC50 (VX-702) [µM]
"A3-KAW (B-cell lymphoma, suspension)",0.993,> 2,0.611,1.89,0.983,> 20,0.985,> 5,0.934,> 10,0.768,1.55,0.741,2.04,0.989,> 5.12,0.892,3.02,0.804,1.97,0.993,> 10,0.992,> 2
"A4-Fuk (B-cell lymphoma, suspension)",0.924,> 2,0.283,0.235,0.98,> 20,0.985,> 5,0.981,> 10,0.917,> 5.12,0.817,4.73,0.982,> 5.12,0.879,> 4,0.298,0.0839,0.929,> 10,0.825,1.27
"ARH-77 (myeloma, suspension)",0.985,> 2,0.474,0.852,0.95,> 20,0.969,> 5,0.972,> 10,0.924,> 5.12,0.9,> 8,0.848,3.58,0.935,> 4,0.824,2.89,0.988,> 10,0.974,> 2
"BB30-HNC (head and neck, adherent)",0.882,> 2,0.224,0.16,0.984,> 20,0.926,> 5,0.874,9.4,0.868,4.5,0.808,4.05,0.65,0.827,,,0.693,1.1,0.984,> 10,0.986,> 2
"BB49-HNC (head and neck, adherent)",0.945,> 2,0.87,> 16,0.978,> 20,0.977,> 5,0.852,> 10,0.879,> 5.12,0.844,> 8,0.905,> 5.12,0.686,1.04,0.906,> 5.12,0.975,> 10,0.978,> 2
"BC-1 (B-cell lymphoma, suspension)",0.988,> 2,0.63,2.15,0.968,> 20,0.98,> 5,0.981,> 10,0.951,> 5.12,0.92,> 8,0.977,> 5.12,0.945,> 4,0.95,> 5.12,0.989,> 10,0.99,> 2
"BE2-M17 (neuroblastoma, adherent)",0.931,> 2,0.618,2.14,0.943,> 20,0.987,> 5,0.984,> 10,0.955,> 5.12,0.946,> 8,0.987,> 5.12,0.686,0.842,0.852,4.14,0.987,> 10,0.985,> 2
"COR-L279 (small cell lung carcinoma, suspension)",0.991,> 2,0.968,> 16,,,0.964,> 5,0.798,4.17,0.956,> 5.12,0.905,> 8,0.981,> 5.12,0.989,> 4,0.947,> 5.12,0.99,> 10,0.991,> 2
"DOHH-2 (B-cell lymphoma, suspension)",0.868,1.75,0.413,0.58,,,0.874,4.65,,,0.745,1.58,0.752,2.61,0.202,0.0432,,,0.875,4.84,0.985,> 10,0.983,> 2
"GA-10 (Burkitt lymphoma, suspension)",0.948,> 2,0.099,0.0667,,,0.989,> 5,0.991,> 10,0.862,3.3,0.702,1.66,0.104,0.0224,0.963,> 4,0.741,1.36,0.975,> 10,0.97,> 2
"H-EMC-SS (chondrosarcoma, adherent)",0.867,> 2,0.692,4.1,0.836,19.2,,,0.979,> 10,0.981,> 5.12,0.976,> 8,0.976,> 5.12,,,0.979,> 5.12,0.789,5.9,,
"HCC1187 (breast, suspension)",0.978,> 2,0.526,1.18,0.943,> 20,,,,,0.981,> 5.12,0.83,4.68,0.961,> 5.12,0.928,> 4,0.951,> 5.12,0.985,> 10,0.976,> 2
"HT-144 (melanoma, adherent)",0.927,> 2,0.417,0.577,0.982,> 20,,,0.959,> 10,0.741,1.72,0.947,> 8,0.835,3.92,0.932,> 4,0.762,2.03,0.981,> 10,,
"IM-9 (myeloma, suspension)",0.992,> 2,0.615,1.98,,,0.99,> 5,0.962,> 10,0.942,> 5.12,0.992,> 8,0.992,> 5.12,0.991,> 4,0.991,> 5.12,0.992,> 10,0.991,> 2
"JAR (urogenital system, adherent)",0.934,> 2,0.682,3.2,0.956,> 20,,,0.975,> 10,0.934,> 5.12,0.964,> 8,0.971,> 5.12,0.963,> 4,0.969,> 5.12,0.977,> 10,,
"KARPAS-231 (B-cell leukaemia, suspension)",0.933,> 2,0.28,0.283,,,0.932,> 5,0.974,> 10,0.943,> 5.12,0.803,2.94,0.385,0.167,0.977,> 4,0.849,2.57,0.987,> 10,0.973,> 2
"KG-1 (acute myeloid leukaemia, suspension)",0.969,> 2,0.579,1.61,0.893,19.5,,,,,0.98,> 5.12,0.984,> 8,0.989,> 5.12,0.836,2.25,0.932,> 5.12,0.986,> 10,,
"MPP-89 (mesothelioma, adherent)",0.864,> 2,0.498,0.985,0.916,> 20,0.979,> 5,0.926,> 10,0.903,> 5.12,0.744,3.15,0.858,> 5.12,0.947,> 4,0.828,4.57,0.973,> 10,,
"MZ7-mel (melanoma, adherent)",0.987,> 2,0.169,0.0936,0.858,17.4,,,0.982,> 10,0.913,> 5.12,0.869,7.85,0.939,> 5.12,0.938,> 4,0.92,> 5.12,0.979,> 10,,
"NU-DUL-1 (B-cell lymphoma, suspension)",0.979,> 2,0.243,0.219,0.962,> 20,0.961,> 5,0.99,> 10,0.945,> 5.12,0.842,4.09,0.293,0.0957,0.992,> 4,0.9,4.26,,,0.99,> 2
"QIMR-WIL (acute myeloid leukaemia, suspension)",0.964,> 2,,,0.867,17.1,0.966,> 5,0.959,> 10,0.971,> 5.12,0.839,5.24,0.799,2.37,0.969,> 4,0.873,4.67,0.987,> 10,0.97,> 2
"RPMI-8226 (myeloma, suspension)",0.975,> 2,0.427,0.65,0.979,> 20,0.942,> 5,0.976,> 10,0.839,2.85,0.911,> 8,0.966,> 5.12,0.889,3.51,0.92,> 5.12,,,0.909,> 2
"SK-ES-1 (Ewing sarcoma, semi-adherent)",0.962,> 2,0.506,1.04,0.761,7.55,,,,,0.907,> 5.12,0.903,> 8,0.982,> 5.12,0.791,1.93,0.522,0.37,0.978,> 10,0.942,> 2
"U-87-MG (glioma, adherent)",0.917,> 2,0.542,1.33,0.969,> 20,,,,,0.97,> 5.12,0.85,7.76,0.945,> 5.12,0.893,> 4,0.979,> 5.12,0.985,> 10,0.978,> 2
